Laboratory results from patent USRE44681E1, “Compositions and methods for inhibiting growth of SMAD4-deficient cancers” (Biogen Idec MA Inc., priority 2006, dated 2013).

Key:
[1] = test system: ASPC-1 human pancreatic adenocarcinoma cells; experiment: Orthotopic model of pancreatic cancer with ASPC-1 cells in athymic nude mice; assay type: in vivo; conditions: orthotopic ASPC-1 model
[2] = test system: BxPC-3 human pancreatic adenocarcinoma; experiment: Subcutaneously implanted BxPC-3 in athymic nude mice, single agent or combination chemotherapy (Example 4); assay type: in vivo; conditions: data obtained earlier with this xenograft model (not shown)

In the case of `Nc1ccn([C@@H]2O[C@H](CO)[C@@H](O)C2(F)F)c(=O)n1` [gemcitabine], the tumor volume [1] is reported as “did not have a significant effect” and the “sensitivity of the BxPC-3 xenograft to the drug” value [2] is reported as “resistant”.
